According to US20220049021A1 (Gilead, published 2022):
Where two headings read alike, the source gives them in different places.

T1: human FLT3 on AML5 cells (human, UniProt P36888 27-993)
T1 sequence (looked up): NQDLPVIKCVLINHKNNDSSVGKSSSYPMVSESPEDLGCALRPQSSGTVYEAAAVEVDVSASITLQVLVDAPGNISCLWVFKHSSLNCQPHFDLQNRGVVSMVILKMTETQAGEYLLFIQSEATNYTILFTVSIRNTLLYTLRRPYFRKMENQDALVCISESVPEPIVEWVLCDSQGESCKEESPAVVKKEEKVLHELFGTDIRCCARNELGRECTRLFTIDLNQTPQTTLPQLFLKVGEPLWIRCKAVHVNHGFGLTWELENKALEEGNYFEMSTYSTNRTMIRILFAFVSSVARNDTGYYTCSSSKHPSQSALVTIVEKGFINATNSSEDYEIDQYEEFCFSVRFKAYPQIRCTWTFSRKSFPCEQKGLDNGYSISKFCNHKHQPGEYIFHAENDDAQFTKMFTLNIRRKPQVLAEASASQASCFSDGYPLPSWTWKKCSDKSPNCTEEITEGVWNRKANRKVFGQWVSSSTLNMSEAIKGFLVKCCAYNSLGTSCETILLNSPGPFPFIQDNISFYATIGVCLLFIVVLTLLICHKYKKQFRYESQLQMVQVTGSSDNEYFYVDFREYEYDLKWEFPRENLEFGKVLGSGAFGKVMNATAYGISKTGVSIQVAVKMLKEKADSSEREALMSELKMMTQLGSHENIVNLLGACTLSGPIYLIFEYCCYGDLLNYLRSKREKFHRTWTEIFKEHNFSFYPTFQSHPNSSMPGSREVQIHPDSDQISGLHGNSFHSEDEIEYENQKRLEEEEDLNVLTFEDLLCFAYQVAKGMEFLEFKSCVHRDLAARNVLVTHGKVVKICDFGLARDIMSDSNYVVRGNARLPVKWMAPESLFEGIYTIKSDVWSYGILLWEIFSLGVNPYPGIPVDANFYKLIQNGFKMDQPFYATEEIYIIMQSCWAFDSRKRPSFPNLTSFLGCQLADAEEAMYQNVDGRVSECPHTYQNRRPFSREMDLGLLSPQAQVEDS


Experiments:
human FLT3 on AML5 cells [1] = target: T1, human FLT3 on AML5 cells; experiment: cell-based or functional assay
[2] = target: T2, recombinant human C1q protein (Fitzgerald) (human, UniProt P02745; P02746; P02747, limits assumed); experiment: ELISA; test protein immobilised in serial dilution, recombinant human C1q added, anti-C1q-HRP
T2 construct: also called human recombinant complement protein, C1q
T2 sequence (P02745 23-245 limits assumed, chain 1 of 3): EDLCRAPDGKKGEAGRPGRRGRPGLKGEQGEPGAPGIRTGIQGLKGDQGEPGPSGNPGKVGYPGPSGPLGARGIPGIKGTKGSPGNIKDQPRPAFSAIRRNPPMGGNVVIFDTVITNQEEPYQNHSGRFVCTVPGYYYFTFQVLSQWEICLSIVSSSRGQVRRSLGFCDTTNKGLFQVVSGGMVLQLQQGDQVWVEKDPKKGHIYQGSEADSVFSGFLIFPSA
T2 sequence (P02746 28-253 limits assumed, chain 2 of 3, further chain): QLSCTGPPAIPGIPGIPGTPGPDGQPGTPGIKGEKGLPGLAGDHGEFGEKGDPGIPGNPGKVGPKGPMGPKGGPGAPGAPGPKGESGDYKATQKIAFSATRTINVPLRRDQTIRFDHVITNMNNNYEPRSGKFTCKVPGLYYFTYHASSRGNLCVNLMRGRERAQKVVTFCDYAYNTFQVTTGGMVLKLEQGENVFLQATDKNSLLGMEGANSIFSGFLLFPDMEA
T2 sequence (P02747 29-245 limits assumed, chain 3 of 3, further chain): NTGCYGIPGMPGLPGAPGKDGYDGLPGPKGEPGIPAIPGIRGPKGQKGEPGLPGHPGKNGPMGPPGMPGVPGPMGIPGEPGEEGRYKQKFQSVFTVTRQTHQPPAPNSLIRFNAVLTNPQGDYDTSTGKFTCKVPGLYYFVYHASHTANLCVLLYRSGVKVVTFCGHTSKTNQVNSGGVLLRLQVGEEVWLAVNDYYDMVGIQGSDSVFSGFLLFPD

human FLT3 on AML5 cells [3] = target: T1, human FLT3 on AML5 cells; experiment: cell-based or functional assay; remark: listed apart in the source

Row | Binder | EC50 (nM), AML5 Proliferation Assay (human FLT3 on AML5 cells [1]) [nM] | binding result [2] | EC50 (nM), AML5 Proliferation Assay (human FLT3 on AML5 cells [3]) [nM]
1 | human FLT3-ligand human IgG4 (S228P/L235E) fusion protein (SEQ ID NO:3) (Fc fusion) TQDCSFQHSPISSDFAVKIRELSDYLLQDYPVTVASNLQDEELCGGLWRLVLAQRWMERLKTVAGSKMQGLLERVNTEIHFVTKCAFQPPPSCLRFVQTNISRLLQETSEQLVALKPWITRQNFSRCLELQCQPDSSTLPPPWSPRPLEATAPTAPQ[in this place human IgG4 Fc with changes] | 0.088 |  | 
2 | human FLT3-ligand human IgG4 (S228P/F234A/L235A) fusion protein (SEQ ID NO:4) (Fc fusion, also called FLT3L ECD-hG4 S228P/F234A/L235A) TQDCSFQHSPISSDFAVKIRELSDYLLQDYPVTVASNLQDEELCGGLWRLVLAQRWMERLKTVAGSKMQGLLERVNTEIHFVTKCAFQPPPSCLRFVQTNISRLLQETSEQLVALKPWITRQNFSRCLELQCQPDSSTLPPPWSPRPLEATAPTAPQ[in this place human IgG4 Fc with S228P F234A L235A (EU numbers)] | 0.073 | no binding (tested: 94 nM (top of the titration)) | 
3 | human FLT3-ligand (Δ5 amino acid) human IgG4 (S228P/F234A/L235A) fusion protein (SEQ ID NO:6) (Fc fusion, also called FLT3L (Δ C-term 5aa (PTAPQ))-hG4 S228P/F234A/L235A) TQDCSFQHSPISSDFAVKIRELSDYLLQDYPVTVASNLQDEELCGGLWRLVLAQRWMERLKTVAGSKMQGLLERVNTEIHFVTKCAFQPPPSCLRFVQTNISRLLQETSEQLVALKPWITRQNFSRCLELQCQPDSSTLPPPWSPRPLEATA[in this place human IgG4 Fc with S228P F234A L235A (EU numbers)] | 0.078 | no binding (tested: 94 nM (top of the titration)) | 0.048
4 | human FLT3-ligand (Δ10 amino acid) human IgG4 (S228P/F234A/L235A) fusion protein (SEQ ID NO:8) (Fc fusion) TQDCSFQHSPISSDFAVKIRELSDYLLQDYPVTVASNLQDEELCGGLWRLVLAQRWMERLKTVAGSKMQGLLERVNTEIHFVTKCAFQPPPSCLRFVQTNISRLLQETSEQLVALKPWITRQNFSRCLELQCQPDSSTLPPPWSPRP[in this place human IgG4 Fc with S228P F234A L235A (EU numbers)] | 0.075 | no binding (tested: 94 nM (top of the titration)) | 
